Measurements published in paper PMC10114980, “Triple targeting of mutant EGFR^L858R/T790M, COX-2, and 15-LOX: design and synthesis of novel quinazolinone tethered phenyl urea derivatives for anti-inflammatory and anticancer evaluation” (Journal of Enzyme Inhibition and Medicinal Chemistry, 2023).

How the values were obtained:
[1] = test system: LPS-induced ROS production in RAW 264.7 cells; test: ROS production in LPS-activated RAW 264.7 macrophage cells (DCFH-DA); format: cell-based; settings: Mus musculus, RAW264.7; LPS-activated RAW 264.7 cells; mean ± SEM, three replicates
Experimental: (§1) TNF-α and IL-6 production were detected in RAW 264.7 macrophage cell culture supernatants following the induction of inflammation by LPS. Moreover, the probes of oxidative species 2,7-dichlorofluorescein diacetate (DCFH-DA) (Molecular Probes) and NO, 4-amino-5-methylamino-2,7-difluorofluorescein diacetate (DAF-FM diacetate) (Molecular Probes) were used to investigate the antioxidant and NO production inhibitory potential of the test compounds. Briefly, RAW 264.7 cells were cultured in black 96 well plates (200 000 cells/mL, 100 µl/well) for 24 h followed by the incubation with the individual test compounds or the reference drugs at different concentrations (12.5, 25, 50, and 100 µM) for 2 h at 37 °C. LPS was then added at a final concentration of 1 µg/mL for an additional 18 h. The cell culture supernatant was collected from cells treated with the different compounds at 25 µM to measure TNF-α and IL-6 levels (1:10 dilution) using DuoSet ELISA kits (R&D Systems, Minneapolis, MN) following the manufacturer’s instructions. Then, the plates were washed to perform ROS and NO detection assays as detailed in our previous studies[16]^,[27].

[2] = test system: LPS-induced IL-6 production in RAW 264.7 cells; test: IL-6 production in LPS-activated RAW 264.7 cells (ELISA); format: cell-based; settings: LPS-activated RAW 264.7 cells treated with 25 µM of the compound
[3] = test system: LPS-induced TNF-α production in RAW 264.7 cells; test: TNF-α production in LPS-activated RAW 264.7 cells (ELISA); format: cell-based; settings: LPS-activated RAW 264.7 cells treated with 25 µM of the compound
[4] = test system: LPS-induced NO production in RAW 264.7 cells; test: NO production in LPS-activated RAW 264.7 macrophage cells (DAF-FM diacetate); format: cell-based; settings: Mus musculus, RAW264.7; LPS-activated RAW 264.7 cells; mean ± SEM, three replicates
Experimental: as §1

[5] = target: T1, double mutant EGFR^L858R/T790M (Homo sapiens, UniProt P00533, L858R/T790M); test: In vitro EGFR inhibition assay, double mutant; format: biochemical; settings: for IC50: double mutant EGFR; for Selectivity (SI): ratio of the IC50 values EGFR^WT/EGFR^L858R/T790M
T1 construct: purchased AssayQuant Technologies, Inc. (Marlboro, MA, USA)

wild-type EGFR = target: T2, wild-type EGFR (Homo sapiens, UniProt P00533); test: In vitro EGFR inhibition assay, wild type; format: biochemical; settings: read-out: EGFR^WT IC50
T2 construct: purchased AssayQuant Technologies, Inc. (Marlboro, MA, USA)

soybean 15-LOX = target: T3, soybean 15-LOX (Glycine max, UniProt P08170); test: 15-LOX inhibitor screening assay (Cayman); format: biochemical; settings: mean ± SEM, n = 3 replicates
T3 sequence (P08170 1-839): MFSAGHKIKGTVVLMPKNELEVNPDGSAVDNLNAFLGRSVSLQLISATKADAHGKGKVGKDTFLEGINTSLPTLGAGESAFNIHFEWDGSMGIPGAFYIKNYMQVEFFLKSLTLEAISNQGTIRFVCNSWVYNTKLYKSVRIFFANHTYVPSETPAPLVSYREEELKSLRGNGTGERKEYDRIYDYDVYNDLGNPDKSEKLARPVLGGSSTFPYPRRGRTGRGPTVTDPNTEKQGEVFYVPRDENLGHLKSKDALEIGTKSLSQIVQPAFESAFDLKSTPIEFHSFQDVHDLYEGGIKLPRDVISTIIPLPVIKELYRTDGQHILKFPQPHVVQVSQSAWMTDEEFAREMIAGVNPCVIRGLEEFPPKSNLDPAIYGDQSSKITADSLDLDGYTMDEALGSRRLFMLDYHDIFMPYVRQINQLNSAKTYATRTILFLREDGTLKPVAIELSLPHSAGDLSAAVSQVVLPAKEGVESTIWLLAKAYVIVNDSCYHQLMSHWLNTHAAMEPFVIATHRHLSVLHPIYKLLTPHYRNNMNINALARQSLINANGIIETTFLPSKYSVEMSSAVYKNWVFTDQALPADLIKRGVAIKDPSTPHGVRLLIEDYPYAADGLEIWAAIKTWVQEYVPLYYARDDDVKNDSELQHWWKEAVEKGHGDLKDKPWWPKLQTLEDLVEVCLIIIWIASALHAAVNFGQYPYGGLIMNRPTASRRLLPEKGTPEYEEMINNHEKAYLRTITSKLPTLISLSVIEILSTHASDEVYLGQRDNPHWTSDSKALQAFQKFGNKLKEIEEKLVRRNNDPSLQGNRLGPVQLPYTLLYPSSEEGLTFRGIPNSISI

Structure (SMILES) | IC50 [1] | IL-6 concentration [2] | TNF-α concentration [3] | IC50 [4] | IC50 [5] | IC50 (wild-type EGFR) | Selectivity (SI) [5] | IC50 (soybean 15-LOX)
Cc1ccc(-c2cc(C(F)(F)F)nn2-c2ccc(S(N)(=O)=O)cc2)cc1 [Celecoxib, celecoxib, reference compound] | 7.57 ± 1.32 µM | 176.4 ± 70.48 pg/mL | 383.3 ± 27.8 pg/mL | 14.39 ± 0.08 µM |  |  |  | 
CC1N(NC(=O)Nc2ccccc2)C(=O)c2ccccc2N1C (centres unmarked) [Compound 6b, 1-(1,2-Dimethyl-4-oxo-1,4-dihydroquinazolin-3(2H)-yl)-3-phenylurea] | 55.5 ± 1 µM | 512.1 ± 46.13 pg/mL |  | 1.57 ± 1.29 µM | > 100 µM | > 100 µM |  | 
COc1ccc(C2N(NC(=O)Nc3ccccc3)C(=O)c3ccccc3N2C)cc1 (centres unmarked) [Compound 6f, 1-(2-(4-Methoxyphenyl)-1-methyl-4-oxo-1,4-dihydroquinazolin-3(2H)-yl)-3-phenylurea] | 63.6 ± 1.3 µM | 207.3 ± 4.51 pg/mL | 1239.00 ± 20.50 pg/mL | 4.05 ± 0.35 µM | > 100 µM | > 100 µM |  | 
COc1ccc(NC(=O)NN2CN(C)c3ccccc3C2=O)cc1 [Compound 6g, 1-(4-Methoxyphenyl)-3-(1-methyl-4-oxo-1,4-dihydroquinazolin-3(2H)-yl)urea] | > 100 µM | 363.2 ± 12.62 pg/mL | 1292.00 ± 16.72 pg/mL | 1.24 ± 0.56 µM | 8.14 ± 1.07 µM | > 100 µM | >12.3 | 1.61 ± 0.23 µM
COc1ccc(NC(=O)NN2C(=O)c3ccccc3N(C)C2c2ccccc2)cc1 (centres unmarked) [Compound 6h, 1-(4-Methoxyphenyl)-3-(1-methyl-4-oxo-2-phenyl-1,4-dihydroquinazolin-3(2H)-yl)urea] | 41.2 ± 1 µM | 328.9 ± 1.31 pg/mL |  | 2.73 ± 0.32 µM | 23.7 ± 3.54 µM | > 100 µM | >4.2 | 
COc1ccc(NC(=O)NN2C(=O)c3ccccc3N(C)C2c2ccc([N+](=O)[O-])cc2)cc1 (centres unmarked) [Compound 6i, 1-(4-Methoxyphenyl)-3-(1-methyl-2-(4-nitrophenyl)-4-oxo-1,4-dihydroquinazolin-3(2H)-yl)urea] | 5.9 ± 1.84 µM |  | 1821.00 ± 10.40 pg/mL | 7.89 ± 1.02 µM | 51.5 ± 4.58 µM | > 100 µM | >1.9 | 
CN1CN(NC(=O)Nc2ccc(F)cc2)C(=O)c2ccccc21 [Compound 6k, 1-(4-Fluorophenyl)-3-(1-methyl-4-oxo-1,4-dihydroquinazolin-3(2H)-yl)urea] | 5.04 ± 1.43 µM |  | 2024.00 ± 26.30 pg/mL | 3.1 ± 0.86 µM | > 100 µM | > 100 µM |  | 
O=C(O)Cc1ccccc1Nc1c(Cl)cccc1Cl [Diclofenac, diclofenac sodium, reference compound] | 43.8 ± 1.04 µM |  |  | 24.08 ± 0.15 µM |  |  |  | 
COc1ccc2c(c1)c(CC(=O)O)c(C)n2C(=O)c1ccc(Cl)cc1 [Indomethacin, indomethacin, reference compound] | 79.4 ± 1.14 µM |  |  | 46.5 ± 1.07 µM |  |  |  | 
